# Molecular target: T1, Ph14372 (CYP71BE54) (Sinopodophyllum hexandrum, UniProt A0A0N9HT29)
# T1 sequence (A0A0N9HT29 1-507): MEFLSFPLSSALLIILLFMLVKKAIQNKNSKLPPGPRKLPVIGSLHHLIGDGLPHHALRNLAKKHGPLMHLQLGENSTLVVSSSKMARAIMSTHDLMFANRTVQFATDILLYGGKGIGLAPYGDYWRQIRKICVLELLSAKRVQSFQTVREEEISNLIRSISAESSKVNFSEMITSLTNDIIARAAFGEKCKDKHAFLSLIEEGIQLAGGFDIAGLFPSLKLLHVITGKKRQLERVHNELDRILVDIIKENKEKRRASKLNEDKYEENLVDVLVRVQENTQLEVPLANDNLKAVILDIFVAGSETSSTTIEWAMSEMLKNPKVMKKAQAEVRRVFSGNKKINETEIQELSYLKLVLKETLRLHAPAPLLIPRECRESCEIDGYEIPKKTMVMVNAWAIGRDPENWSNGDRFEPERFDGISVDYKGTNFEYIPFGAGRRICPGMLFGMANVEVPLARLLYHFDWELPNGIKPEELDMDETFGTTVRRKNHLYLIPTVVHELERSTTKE
# Experiment: yeast microsome turnover, LC-MS
# Assay type: biochemical
# Details: 4′-O-demethylation
structure (smiles),measurement,value
COc1cc([C@@H]2c3cc4c(cc3C[C@H]3COC(=O)[C@@H]32)OCO4)cc(OC)c1OC [(−)-deoxypodophyllotoxin],"yeast microsome turnover, LC-MS",isolated CYP71BE54 microsomes accepted (−)-deoxypodophyllotoxin as a substrate

# Reference: paper PMC6861171 (Science (New York, N.Y.), 2015)
